Target: T1, GST fused to the ATP8A1 tail (amino acids 1049-1163) (human, UniProt Q9Y2Q0 1049-1163)
T1 sequence (looked up): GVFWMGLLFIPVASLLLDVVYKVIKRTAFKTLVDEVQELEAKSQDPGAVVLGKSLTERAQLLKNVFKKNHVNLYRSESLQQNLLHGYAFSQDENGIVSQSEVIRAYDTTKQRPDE
Assay: pull-down

B1: GBF1 (natural protein)
chain: not shown
- % of total input bound to the beads: 5 % of total input

Reference: paper PMC11264237 (Archives of biochemistry and biophysics, 2024)
